In all, about 33,000 sequences were measured (“E-score (-0.5 to 0.5)”: median about -0.021, highest 2% from about 0.32 on). The list shows a part of the results.

The results in this text go back to the supplement of paper PMC3334620.

In this test the target is T1, Zap1 (UniProt P47043).
T1 sequence: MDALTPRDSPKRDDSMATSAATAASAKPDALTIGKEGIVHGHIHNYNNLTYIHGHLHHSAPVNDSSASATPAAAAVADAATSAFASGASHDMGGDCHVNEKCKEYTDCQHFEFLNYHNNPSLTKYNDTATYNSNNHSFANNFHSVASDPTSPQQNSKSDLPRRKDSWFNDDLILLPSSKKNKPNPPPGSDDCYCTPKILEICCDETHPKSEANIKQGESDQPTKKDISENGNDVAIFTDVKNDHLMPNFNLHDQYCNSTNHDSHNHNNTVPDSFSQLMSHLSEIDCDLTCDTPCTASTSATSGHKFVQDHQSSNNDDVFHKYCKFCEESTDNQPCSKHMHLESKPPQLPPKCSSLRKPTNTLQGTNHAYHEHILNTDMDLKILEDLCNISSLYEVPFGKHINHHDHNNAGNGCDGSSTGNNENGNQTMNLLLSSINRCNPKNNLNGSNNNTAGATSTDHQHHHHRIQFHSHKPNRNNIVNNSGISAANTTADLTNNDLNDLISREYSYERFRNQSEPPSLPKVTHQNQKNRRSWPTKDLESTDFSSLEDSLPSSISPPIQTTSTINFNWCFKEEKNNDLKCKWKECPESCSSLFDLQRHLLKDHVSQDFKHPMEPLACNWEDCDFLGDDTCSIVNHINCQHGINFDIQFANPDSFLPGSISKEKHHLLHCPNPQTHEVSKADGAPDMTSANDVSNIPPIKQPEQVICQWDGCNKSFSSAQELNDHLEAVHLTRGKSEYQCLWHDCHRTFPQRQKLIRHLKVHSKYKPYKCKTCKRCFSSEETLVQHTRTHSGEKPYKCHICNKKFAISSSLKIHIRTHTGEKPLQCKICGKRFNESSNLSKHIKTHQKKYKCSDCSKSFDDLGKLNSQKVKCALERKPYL
In words: PBM E-score (8-mer binding enrichment) (E-score (-0.5 to 0.5)); higher = stronger / more preferred TF binding; most listed sequences are background and not binding sites. As to conditions: protein concentration: 200 nM; construct: GST-full length. The method, boiled down:
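Masliner-normalised scans of fluorescent anti-GST signal were the basis for scoring. That signal came from GST-tagged yeast transcription factors applied at about 100-200 nM to double-stranded universal all-10-mer Agilent arrays on fresh or once-stripped slides. Each ungapped eight-base word, pooled with its reverse complement, received an E-score from the Universal PBM Analysis Suite.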
As for GGAAGCCC, the “PBM E-score” value was -0.175.

As to CTCGCCGC, the “PBM E-score” value is -0.101.

Consider CGTAGAGA, for which the “PBM E-score” value is -0.0844.

For AACCCGAG, the “PBM E-score” value turned out to be 0.236.

On to CGATATAC, for which the “PBM E-score” value was -0.174.

With GGTCCCTA, the “PBM E-score” value came out at 0.0819.

With ACCGGAGA, the “PBM E-score” value worked out at 0.165.

GCCCTCAA: the “PBM E-score” value was -0.0338.

Consider CTGTCGTA, for which the “PBM E-score” value is -0.0959.

In the case of GTAATGAC, the “PBM E-score” value is 0.128.

For the sequence CTCTATTC, the “PBM E-score” value is -0.0625.

As for GTTTTACA, the “PBM E-score” value is -0.0421.

With ATCCACGC, the “PBM E-score” value was -0.182.

ACGTGCTA: the “PBM E-score” value is -0.249.

With CACTGCGA, the “PBM E-score” value was 0.0909.

For CTTCTCAA, the “PBM E-score” value was found to be 0.0469.

On to GCGTACCC, for which the “PBM E-score” value was determined as 0.106.

Consider GTAAGAGA, for which the “PBM E-score” value is -0.269.

Regarding AGGAGACA, the “PBM E-score” value was -0.232.

With CTGGGTTC, the “PBM E-score” value turned out to be 0.0979.

Take ACCTTTAT: the “PBM E-score” value stood at 0.352.

With CAATTCGC, the “PBM E-score” value turned out to be 0.138.

On to GCATCGGC, for which the “PBM E-score” value was -0.215.

For the sequence GGCGGAGA, the “PBM E-score” value is -0.0875.

GTCTAAGA: the “PBM E-score” value stood at 0.0701.

As to GTAGGTTA, the “PBM E-score” value came to 0.39.

In the case of AGATAGAG, the “PBM E-score” value is -0.0876.

In the case of CAAGTTCC, the “PBM E-score” value was -0.042.

Consider GGCCCCGA, for which the “PBM E-score” value worked out at 0.0916.

Regarding GAACCAGA, the “PBM E-score” value is -0.0227.

In the case of ACGCATCA, the “PBM E-score” value stood at 0.119.

As for CAGTTGAA, the “PBM E-score” value was -0.141.

On to ACTGTAAC, for which the “PBM E-score” value stood at 0.292.

For CGGTCAAG, the “PBM E-score” value was found to be 0.0395.

Consider AAGTAGCG, for which the “PBM E-score” value is -0.271.

Consider CTTGACCA, for which the “PBM E-score” value stood at 0.147.

On to CGCGTTGC, for which the “PBM E-score” value came to 0.117.

In the case of AGTTTTAC, the “PBM E-score” value is 0.0307.

Consider ATGGCACC, for which the “PBM E-score” value came to 0.0227.

Take CGGGTGCC: the “PBM E-score” value is 0.0214.

AGAATTCG: the “PBM E-score” value is -0.0461.

As for TGTTTGAA, the “PBM E-score” value amounted to 0.194.

As to GGGGGTCA, the “PBM E-score” value was -0.132.

As for ACGTGGTG, the “PBM E-score” value was -0.0216.

As for GACGCGTC, the “PBM E-score” value is -0.325.

For CGGCTAAA, the “PBM E-score” value was -0.12.

Take AGGAAGTA: the “PBM E-score” value is 0.0438.

Take CTCCCCGC: the “PBM E-score” value was 0.0789.

For the sequence AAAAAGAT, the “PBM E-score” value was found to be 0.115.

For CCTAACGA, the “PBM E-score” value was 0.093.

As to AACATGCG, the “PBM E-score” value is -0.0232.

For the sequence ACTAGAAG, the “PBM E-score” value is -0.0477.

Turning to GTTCCGTA, the “PBM E-score” value was determined as 0.0429.

AGGATGCG: the “PBM E-score” value is -0.159.

In the case of AAACACTA, the “PBM E-score” value worked out at 0.0817.

Consider GTATACCA, for which the “PBM E-score” value was 0.197.

For the sequence AAAAGGGA, the “PBM E-score” value is -0.0112.

For CGACAGTA, the “PBM E-score” value is -0.0912.

With AGGCGCCC, the “PBM E-score” value is -0.31.

With AACACACC, the “PBM E-score” value is 0.129.

With ATATTGCC, the “PBM E-score” value is -0.112.

ACAAAGTA: the “PBM E-score” value was 0.0977.

On to AGTACATC, for which the “PBM E-score” value was -0.0149.

ACGCCCAA: the “PBM E-score” value was -0.0258.

For the sequence CGGCTGGA, the “PBM E-score” value was -0.209.

As for AGTAATAC, the “PBM E-score” value was determined as 0.0329.

Consider ACCTCTAG, for which the “PBM E-score” value was 0.411.

In the case of AAAGTAAC, the “PBM E-score” value was 0.0452.

On to GGCGCAAC, for which the “PBM E-score” value is -0.0302.

For the sequence AGTGAATA, the “PBM E-score” value is 0.00413.

For the sequence GTGCACTA, the “PBM E-score” value was -0.0272.

Take CACTAGTC: the “PBM E-score” value is -0.185.

As for AAGGAAGG, the “PBM E-score” value was -0.0888.

As to GCTGTCAA, the “PBM E-score” value was -0.0461.

With TCAGAACA, the “PBM E-score” value was -0.0665.

Regarding CCCACGGG, the “PBM E-score” value turned out to be 0.0915.

Turning to AAGTGAGT, the “PBM E-score” value was -0.196.

CGGTAAGA: the “PBM E-score” value was determined as 0.0399.

Consider ACCAGTGC, for which the “PBM E-score” value was -0.121.

As to CAAGCTCC, the “PBM E-score” value was -0.225.

As for AACTGTGC, the “PBM E-score” value was -0.177.

For CATTGCGC, the “PBM E-score” value was -0.185.

For GGCACCAC, the “PBM E-score” value was 0.0803.

AATTCCCT: the “PBM E-score” value was determined as 0.133.

In the case of TAAGTATA, the “PBM E-score” value worked out at 0.227.

Regarding ATCACCGA, the “PBM E-score” value stood at 0.0268.
